In test [1] the target is β1-TM–CT Y783A (THD1-binding impaired) in nanodiscs (UniProt P09055). In words: flow cytometry-based reporter-displacement assay (FC-RDA) on beads; biotinylated TM–CT in 10% PIP2/90% DMPC nanodiscs on streptavidin beads; reporter 100 nM 565–THD1, unlabelled competitor titrated; 20 mM Tris pH 7.5, 200 mM NaCl, room temperature; IC50 of individual experiments; charged lipids contribute to the binding.

For test [2] the target is unchanged. In words: flow cytometry-based reporter-displacement assay (FC-RDA) on beads; biotinylated TM–CT in 10% PIP2/90% DMPC nanodiscs on streptavidin beads; reporter 50 nM 647–KIND2, unlabelled competitor titrated; 20 mM Tris pH 7.5, 200 mM NaCl, room temperature; IC50 of individual experiments; charged lipids contribute to the binding. Background: Flow cytometry measures light scatter and fluorescence of single cells or particles in a stream.

Test [3] shares this target. Nature of the test: flow cytometry-based reporter-displacement assay (FC-RDA) on beads; biotinylated TM–CT in 10% PIP3/90% DMPC nanodiscs on streptavidin beads; reporter 100 nM 565–THD1, unlabelled competitor titrated; 20 mM Tris pH 7.5, 200 mM NaCl, room temperature; IC50 of individual experiments; charged lipids contribute to the binding.
Test [4] addresses β1-TM–CT Y795A (KIND2-binding impaired) in nanodiscs (UniProt P09055). In words: flow cytometry-based reporter-displacement assay (FC-RDA) on beads; biotinylated TM–CT in 10% PIP2/90% DMPC nanodiscs on streptavidin beads; reporter 100 nM 565–THD1, unlabelled competitor titrated; 20 mM Tris pH 7.5, 200 mM NaCl, room temperature; IC50 of individual experiments; charged lipids contribute to the binding.

Test [5] has the same target. Nature of the test: flow cytometry-based reporter-displacement assay (FC-RDA) on beads; biotinylated TM–CT in 10% PIP2/90% DMPC nanodiscs on streptavidin beads; reporter 50 nM 647–KIND2, unlabelled competitor titrated; 20 mM Tris pH 7.5, 200 mM NaCl, room temperature; IC50 of individual experiments; charged lipids contribute to the binding.
For test [6] the target is unchanged. In words: flow cytometry-based reporter-displacement assay (FC-RDA) on beads; biotinylated TM–CT in 10% PIP3/90% DMPC nanodiscs on streptavidin beads; reporter 100 nM 565–THD1, unlabelled competitor titrated; 20 mM Tris pH 7.5, 200 mM NaCl, room temperature; IC50 of individual experiments; charged lipids contribute to the binding.
The target is the same in test [7]. In words: flow cytometry-based reporter-displacement assay (FC-RDA) on beads; biotinylated TM–CT in 10% PIP3/90% DMPC nanodiscs on streptavidin beads; reporter 50 nM 647–KIND2, unlabelled competitor titrated; 20 mM Tris pH 7.5, 200 mM NaCl, room temperature; IC50 of individual experiments; charged lipids contribute to the binding.

Some entries of the source have several records that differ or are many. Only these are listed. There may be further records. Values that stand side by side seem to repeat one measurement; one of them may be the mean.

B1: kindlin-2 (KIND2) (natural protein)
chain: MALDGIRMPDGCYADGTWELSVHVTDLNRDVTLRVTGEVHIGGVMLKLVEKLDVKKDWSDHALWWEKKRTWLLKTHWTLDKCGIQADAKLQFTPQHKLLRLQLPNMKYVKVKVNFSDRVFKAVSDICKTFNIRHPEELSLLKKPRDPTKKKKKKLDDQSEDEALELEGPLIMPGSGSIYSSPGLYSKTMTPTYDAHDGSPLSPTSAWFGDSALSEGNPGILAVSQPVTSPEILAKMFKPQALLDKAKTNQGWLDSSRSLMEQDVKENEALLLRFKYYSFFDLNPKYDAIRINQLYEQAKWALLLEEIECTEEEMMMFAALQYHINKLSIMTSENHLNNSDKEVDEVDAALSDLEITLEGGKTSTILGDITSIPELADYIKVFKPKKLTLKGYKQYWCTFKDTSISCYKSREESSGTPAHQLNLRGCEVTPDVNISGQKFNIKLLIPVAEGMNEIWLRCDNEKQYAHWMAACRLASKGKTMADSSYNLEVQNILSFLKMQHLNPDPQLIPDQITTDVNPECLVSPRYLKKYKSKQITARILEAHQNVAQMSLIEAKMRFIQAWQSLPEFGITHFIARFQGGKREELIGIAYNRLIRMDASTGDAIKTWRFSNMKQWNVNWEIKMVTVEFADEVRLSFICTEVDCKVVHEFIGGYIFLSTRAKDQNESLDEEMFYKLTSGWV
What is called IC50 is the concentration needed to halve the response being measured. A higher IC50 goes with lower potency. Regarding B1, the IC50 in test [1] is 2.72 µM, 351 nM, 188 nM, 121 nM [lines of one column]; in test [2] it was 204, 196, 93, 48 nM [lines of one column]; in test [3] it was 151 nM, 267 nM, 102 nM, 1.21 µM [lines of one column].

B2: talin-1 head domain (THD1) (domain or fragment, UniProt P26039 1-405, looked up)
chain: MVALSLKISIGNVVKTMQFEPSTMVYDACRMIRERIPEALAGPPNDFGLFLSDDDPKKGIWLEAGKALDYYMLRNGDTMEYRKKQRPLKIRMLDGTVKTIMVDDSKTVTDMLMTICARIGITNHDEYSLVRELMEEKKDEGTGTLRKDKTLLRDEKKMEKLKQKLHTDDELNWLDHGRTLREQGVEEHETLLLRRKFFYSDQNVDSRDPVQLNLLYVQARDDILNGSHPVSFDKACEFAGFQCQIQFGPHNEQKHKAGFLDLKDFLPKEYVKQKGERKIFQAHKNCGQMSEIEAKVRYVKLARSLKTYGVSFFLVKEKMKGKNKLVPRLLGITKECVMRVDEKTKEVIQEWSLTNIKRWAASPKSFTLDFGDYQDGYYSVQTTEGEQIAQLIAGYIDIILKKKKS
notes: talin-1 (TLN1) head domain (THD), residues 1-405; murine TLN1 cDNA is named only for the cell lines; also called WT; source: E. coli (DE3) Rosetta 2, purified (IMAC, SEC); not shown: His10-SUMO, N-terminal, cleaved
With B2, the IC50 was 68, 52, 26, 37 nM [lines of one column] in test [4]; 115, 68, 179, 29 nM [lines of one column] in test [5]; 85, 126, 186, 114, 125 nM [lines of one column] in test [6]; 360, 466, 284, 197 nM [lines of one column] in test [7].

Values taken from PMC10716038, “Talin and kindlin use integrin tail allostery and direct binding to activate integrins” (Nature Structural & Molecular Biology, 2023).
